Structures can show the parent of a compound that is named as a salt. ± gives the standard deviation of the averaged measurements. Whole data set: some 1,300 compounds, median “normalised cell viability” near 1, cut for the lowest 2% near 0.15. Some of the results follow.
System: V-C8 + BRCA2 (BRCA2-proficient hamster cells)
Experiment: normalised cell viability (fraction of plate median); higher = more viable cells (less toxic)
Conditions: 5 µM
How it was run: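 Library drugs, held as 10 mM stocks in DMSO, were diluted to 5 μM in 100 μl medium and added to 96-well plates of V-C8 hamster cells, either lacking BRCA2 or with BRCA2 restored, 24 h after seeding. Plates ran for 3 days (screen 1) or 6 days (screen 2), alongside solvent-only wells. Viability came from a resazurin readout, median-plate normalised, as the mean of triplicate wells.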

SMILES	normalised cell viability (treatment time: 3 days)	normalised cell viability (treatment time: 6 days)
N=C(N)NCCN1CCCCCCC1 [Guanethidine sulfate]	0.978 ± 0.042	0.941 ± 0.065
CC1(C)[C@@H](OC(=O)CCC(=O)O)CC[C@]2(C)[C@H]3C(=O)C=C4[C@@H]5C[C@@](C)(C(=O)O)CC[C@]5(C)CC[C@@]4(C)[C@]3(C)CC[C@@H]12 [Carbenoxolone disodium salt]	1.02 ± 0.03	1.02 ± 0.06
CC(CN(C)C)CN1c2ccccc2Sc2ccccc21 (centres undefined) [Trimeprazine tartrate]	0.976 ± 0.024	0.969 ± 0.029
CC(C(=O)O)c1ccc(C(=O)c2ccccc2)s1 (centres undefined) [Tiaprofenic acid]	0.467 ± 0.025	0.53 ± 0.017
CC(=O)N(CC(O)CN(C(C)=O)c1c(I)c(C(=O)NCC(O)CO)c(I)c(C(=O)NCC(O)CO)c1I)c1c(I)c(C(=O)NCC(O)CO)c(I)c(C(=O)NCC(O)CO)c1I (centres undefined) [Iodixanol]	0.975 ± 0.053	1 ± 0.059
c1ccc(CN(CC2=NCCN2)c2ccccc2)cc1 [Antazoline hydrochloride]	1.03 ± 0.027	1.043 ± 0.0053
CN(C)CC/C=C1/c2ccccc2COc2ccc(CC(=O)O)cc21 [Olopatadine hydrochloride]	1 ± 0.024	0.996 ± 0.033
C=CCSCC1Nc2cc(Cl)c(S(N)(=O)=O)cc2S(=O)(=O)N1 (centres undefined) [Althiazide]	0.915 ± 0.018	1.01 ± 0.1
C[C@]12CC[C@@H]3c4ccc(OS(=O)(=O)O)cc4CC[C@H]3[C@@H]1CCC2=O [Estropipate]	0.988 ± 0.036	0.914 ± 0.14
Cc1ccc(S(=O)(=O)NC(=O)NN2CCCCCC2)cc1 [Tolazamide]	1 ± 0.066	0.935 ± 0.085
CCOC(=O)c1ccc(N)cc1 [Benzocaine]	0.871 ± 0.023	0.9583 ± 0.0066
CCN(CC)CCOC(=O)C(c1ccccc1)c1ccccc1 [Adiphenine hydrochloride]	0.961 ± 0.033	0.916 ± 0.11
OC(CCCN1CCCCC1)(c1ccccc1)c1ccccc1 [Diphenidol hydrochloride]	1.08 ± 0.066	1.05 ± 0.025
Nc1nc(NC2CC2)c2ncn([C@H]3C=C[C@@H](CO)C3)c2n1 [Abacavir Sulfate]	1.04 ± 0.02	1.07 ± 0.034
CCN(CC)CCNc1ccc(CO)c2sc3ccccc3c(=O)c12 [Hycanthone]	0.305 ± 0.045	0.239 ± 0.0094
CN(Cc1cnc2nc(N)nc(N)c2n1)c1ccc(C(=O)N[C@@H](CCC(=O)O)C(=O)O)cc1 [Methotrexate]	0.253 ± 0.0062	0.2 ± 0.018
CN(Cc1cnc2nc(N)nc(N)c2n1)c1ccc(C(=O)N[C@@H](CCC(=O)O)C(=O)O)cc1 (racemic) [Amethopterin (R,S)]	0.242 ± 0.0062	0.212 ± 0.0063
CNC(C)CCC=C(C)C (centres undefined) [Isometheptene mucate]	1.03 ± 0.022	0.991 ± 0.057
O=C(COc1ccc(Cl)cc1)N1CCN(Cc2ccc3c(c2)OCO3)CC1 [Fipexide hydrochloride]	1.02 ± 0.046	1.07 ± 0.065
Cc1ccsc1/C=C/C1=NCCCN1C [Morantel tartrate]	1.03 ± 0.024	1.06 ± 0.011
CN(C)c1ccc(O)c2c1C[C@H]1C[C@H]3[C@H](N(C)C)C(O)=C(C(N)=O)C(=O)[C@@]3(O)C(O)=C1C2=O [Minocycline hydrochloride]	0.944 ± 0.064	0.859 ± 0.077
CN(C)[C@@H]1C(O)=C(C(N)=O)C(=O)[C@@]2(O)C(O)=C3C(=O)c4c(O)cccc4[C@@](C)(O)[C@H]3[C@H](O)[C@@H]12 [Oxytetracycline dihydrate]	1.03 ± 0.02	1.05 ± 0.052
CC1=C(/C=C/C(C)=C/C=C/C(C)=C\C(=O)O)C(C)(C)CCC1 [Isotretinoin]	1.01 ± 0.035	1.02 ± 0.042

SMILES	normalised cell viability (treatment time: 3 days)	normalised cell viability (treatment time: 6 days)
CC/C(=C(/CC)c1ccc(O)cc1)c1ccc(O)cc1 [Diethylstilbestrol]	1.05 ± 0.028	1.06 ± 0.11
CSc1ccc2c(c1)N(CCC1CCCCN1C)c1ccccc1S2 (centres undefined) [Thioridazine hydrochloride]	0.334 ± 0.26	0.247 ± 0.14
NC(N)=Nc1nc(CSCC/C(N)=N/S(N)(=O)=O)cs1 [Famotidine]	1.16 ± 0.079	1.1 ± 0.096
Cc1cc(-c2ccccc2)nnc1NCCN1CCOCC1 [Minaprine dihydrochloride]	1.1 ± 0.02	1.03 ± 0.048
COc1cc(-c2ccc(=O)[nH]n2)ccc1OC(F)F [Zardaverine]	0.9672 ± 0.0083	0.994 ± 0.028
COc1cc(NC(C)CCCN)c2ncccc2c1 (centres undefined) [Primaquine diphosphate]	0.903 ± 0.036	0.899 ± 0.089
CCCCC1(COC(=O)CCC(=O)O)C(=O)N(c2ccccc2)N(c2ccccc2)C1=O [Suxibuzone]	1.03 ± 0.074	1.03 ± 0.04
CCCCNc1c(C(=O)OCC)c(C)nc2c1cnn2CC [Tracazolate hydrochloride]	1 ± 0.032	1.02 ± 0.034
CC(COc1ccccc1)NC(C)C(O)c1ccc(O)cc1 (centres undefined) [Isoxsuprine hydrochloride]	1.07 ± 0.021	1.03 ± 0.062
CC(C)(C)c1ccc(C(O)CCCN2CCC(C(O)(c3ccccc3)c3ccccc3)CC2)cc1 (centres undefined) [Terfenadine]	0.118 ± 0.0067	0.103 ± 0.0052
CCOC(=O)NNc1nncc2ccccc12 [Todralazine hydrochloride]	0.967 ± 0.082	0.955 ± 0.047
CCCCN1CCCCC1C(=O)Nc1c(C)cccc1C (centres undefined) [Bupivacaine hydrochloride]	0.962 ± 0.049	1.03 ± 0.038
CCN(CCO)CCCC(C)Nc1ccnc2cc(Cl)ccc12 (centres undefined) [Hydroxychloroquine sulfate]	0.606 ± 0.024	0.666 ± 0.032
CC(=O)[C@H]1CC[C@H]2[C@@H]3CC=C4C[C@@H](O)CC[C@]4(C)[C@H]3CC[C@]12C [Pregnenolone]	1 ± 0.067	1.07 ± 0.12
COc1ccc(CC2c3cc(OC)c(OC)cc3CC[N+]2(C)CCC(=O)OCCCCCOC(=O)CC[N+]2(C)CCc3cc(OC)c(OC)cc3C2Cc2ccc(OC)c(OC)c2)cc1OC (centres undefined) [Atracurium besylate]	0.89 ± 0.068	0.98 ± 0.059
CN(C)CCCN1c2ccccc2Sc2ccc(Cl)cc21 [Chlorpromazine hydrochloride]	0.692 ± 0.051	0.734 ± 0.011
CCOc1ccccc1OC(c1ccccc1)C1CNCCO1 (centres undefined) [Reboxetine mesylate]	0.969 ± 0.019	1.05 ± 0.036
C[C@@H]1C[C@H]2[C@@H]3C[C@H](F)C4=CC(=O)C=C[C@]4(C)[C@@]3(F)[C@@H](O)C[C@]2(C)[C@@]1(O)C(=O)COC(=O)C(C)(C)C [Flumethasone pivalate]	0.991 ± 0.015	1.03 ± 0.08
Nc1ccc(S(=O)(=O)Nc2ccccn2)cc1 [Sulfapyridine]	0.987 ± 0.038	1.01 ± 0.021
Nc1ccn([C@@H]2O[C@H](CO)[C@@H](O)[C@@H]2O)c(=O)n1 [Cytarabine]	0.221 ± 0.004	0.271 ± 0.031
COc1ccnc(C[S+]([O-])c2nc3cc(OC(F)F)ccc3[nH]2)c1OC (centres undefined) [Pantoprazole sodium]	0.964 ± 0.042	1.03 ± 0.037
O=C(O)[C@H]1/C(=C/CO)O[C@@H]2CC(=O)N21 [Potassium clavulanate]	1.01 ± 0.029	0.9843 ± 0.0039
O=C(OCCOCCO)c1ccccc1Nc1cccc(C(F)(F)F)c1 [Etofenamate]	0.988 ± 0.045	0.987 ± 0.061

SMILES	normalised cell viability (treatment time: 3 days)	normalised cell viability (treatment time: 6 days)
Cc1cnc(C(=O)O)c[n+]1[O-] [Acipimox]	1.07 ± 0.017	1.05 ± 0.023
COc1ccc(CN2CCN(C(c3ccc(F)cc3)c3ccc(F)cc3)CC2)c(OC)c1OC [Lomerizine hydrochloride]	0.874 ± 0.023	0.879 ± 0.045
COc1ccc(C(=O)c2ccccc2O)c(O)c1 [Dioxybenzone]	1.04 ± 0.03	1.09 ± 0.051
CC(C)(C)NC[C@H](O)COc1ccccc1C1CCCC1 [Penbutolol sulfate]	0.819 ± 0.085	0.89 ± 0.079
Nc1nc2[nH]cc(CCc3ccc(C(=O)N[C@@H](CCC(=O)O)C(=O)O)cc3)c2c(=O)[nH]1 [Pemetrexed disodium]	0.509 ± 0.057	0.511 ± 0.045
CCOc1ccc(NC(C)=O)cc1 [Phenacetin]	1.049 ± 0.0076	1.06 ± 0.017
CN1CCC[C@@H]1CCO[C@](C)(c1ccccc1)c1ccc(Cl)cc1 [Clemastine fumarate]	0.907 ± 0.084	0.908 ± 0.021
CC(C(=O)O)c1ccc(C(=O)c2cccs2)cc1 (centres undefined) [Suprofen]	1.02 ± 0.049	1.11 ± 0.042
COc1cc2ncnc(Nc3ccc(F)c(Cl)c3)c2cc1OCCCN1CCOCC1 [Gefitinib]	0.904 ± 0.081	0.824 ± 0.033
CCCCC[C@H](O)/C=C/[C@H]1[C@H](O)CC(=O)[C@@H]1CCCCCCC(=O)O [Alprostadil]	1.01 ± 0.054	1.01 ± 0.022
CCN1CCC[C@H]1CNC(=O)c1c(O)c(Cl)cc(Cl)c1OC [Raclopride]	0.884 ± 0.097	0.814 ± 0.085
NCc1ccc(S(N)(=O)=O)cc1 [Mafenide hydrochloride]	1.03 ± 0.046	0.9782 ± 0.0063
CN[C@@H]1[C@H](O[C@H]2[C@H](O[C@H]3[C@H](O)[C@@H](O)[C@H](NC(=N)N)[C@@H](O)[C@@H]3NC(=N)N)O[C@@H](C)[C@]2(O)CO)O[C@@H](CO)[C@H](O)[C@H]1O [Dihydrostreptomycin sulfate]	0.911 ± 0.07	0.983 ± 0.042
CC/C(=C(\c1ccccc1)c1ccc(OCCN(C)C)cc1)c1ccccc1 [Tamoxifen citrate]	0.878 ± 0.054	0.88 ± 0.021
CCc1oc2ccccc2c1C(=O)c1cc(Br)c(O)c(Br)c1 [Benzbromarone]	1.05 ± 0.034	1.08 ± 0.049
C#C[C@]1(O)CC[C@H]2[C@@H]3CCC4=C(CCC(=O)C4)[C@H]3CC[C@@]21C [Norethynodrel]	1 ± 0.032	1.06 ± 0.1
CC(C)(C)NCC(O)c1cc(O)cc(O)c1 (centres undefined) [Terbutaline hemisulfate]	0.45 ± 0.037	0.5206 ± 0.0045
NS(=O)(=O)c1cc2c(cc1Cl)NC(CC1CCCC1)NS2(=O)=O (centres undefined) [Cyclopenthiazide]	1 ± 0.034	1.05 ± 0.064
CCOC(=O)[N-]c1c[n+](N2CCOCC2)no1 [Molsidomine]	1.04 ± 0.05	1.1 ± 0.028
CC[N+](CC)(CC)CCOc1cccc(OCC[N+](CC)(CC)CC)c1OCC[N+](CC)(CC)CC [Gallamine triethiodide]	0.93 ± 0.011	0.95 ± 0.022
CC(C)NCC(O)c1ccc(O)c(O)c1 (single isomer, unassigned; (-)) [(-)-Isoproterenol hydrochloride]	1.05 ± 0.093	0.993 ± 0.1
